Here are results for 90 molecules from publication PMC4336329 (PLoS ONE, 2015).

The campaign covered roughly 310,000 compounds. About 2,200 (0.71%) showed an effect of 50% or more. The effect is printed as a negative number. This is one part of the list.

Chain of human ether-à-go-go-related gene (hERG) potassium channel (Q12809 whole entry, looked up): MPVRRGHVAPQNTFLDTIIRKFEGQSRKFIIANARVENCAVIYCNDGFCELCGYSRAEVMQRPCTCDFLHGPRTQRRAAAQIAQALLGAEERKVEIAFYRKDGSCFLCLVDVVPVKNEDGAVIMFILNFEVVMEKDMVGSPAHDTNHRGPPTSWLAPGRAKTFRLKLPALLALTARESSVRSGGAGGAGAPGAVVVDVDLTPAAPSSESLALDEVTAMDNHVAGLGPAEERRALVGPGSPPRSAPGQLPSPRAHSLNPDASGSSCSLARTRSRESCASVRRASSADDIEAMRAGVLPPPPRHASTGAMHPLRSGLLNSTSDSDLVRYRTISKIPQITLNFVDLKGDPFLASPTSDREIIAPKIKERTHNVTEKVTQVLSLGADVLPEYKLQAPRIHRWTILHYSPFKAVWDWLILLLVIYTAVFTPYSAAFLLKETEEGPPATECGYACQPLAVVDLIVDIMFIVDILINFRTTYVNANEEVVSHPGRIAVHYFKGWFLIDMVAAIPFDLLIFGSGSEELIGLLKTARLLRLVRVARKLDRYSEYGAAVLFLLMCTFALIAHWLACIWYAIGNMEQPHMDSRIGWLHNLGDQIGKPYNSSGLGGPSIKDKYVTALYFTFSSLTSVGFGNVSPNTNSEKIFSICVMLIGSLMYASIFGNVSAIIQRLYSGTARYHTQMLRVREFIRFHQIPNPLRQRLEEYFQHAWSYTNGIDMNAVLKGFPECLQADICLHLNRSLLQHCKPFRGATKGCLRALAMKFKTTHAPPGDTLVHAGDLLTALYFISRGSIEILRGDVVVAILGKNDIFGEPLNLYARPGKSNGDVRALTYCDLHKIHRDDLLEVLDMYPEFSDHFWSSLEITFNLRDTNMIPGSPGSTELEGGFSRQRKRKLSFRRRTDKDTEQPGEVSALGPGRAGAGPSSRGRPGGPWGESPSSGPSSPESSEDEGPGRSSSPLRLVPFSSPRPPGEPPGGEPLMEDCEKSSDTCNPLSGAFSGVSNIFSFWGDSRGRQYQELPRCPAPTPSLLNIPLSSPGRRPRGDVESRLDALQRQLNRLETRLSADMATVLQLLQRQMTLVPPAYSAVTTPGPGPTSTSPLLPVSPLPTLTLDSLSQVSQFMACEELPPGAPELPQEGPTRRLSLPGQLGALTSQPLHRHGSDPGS

The experiment concerns the target human ether-à-go-go-related gene (hERG) potassium channel (human, UniProt Q12809). The experiment can be described thus: primary screen, population patch clamp on CHO cells stably expressing hERG.
For `Cc1ccc(-c2nn(-c3ccc(F)cc3)cc2C(=O)N2CCN(C3CCS(=O)(=O)C3)CC2)cc1` (stereo not drawn), the “hERG current change (%, negative = inhibition) at 1uM” value was -24.2%. As for `CCn1c(=O)c2ccccc2n(Cc2ccc([N+](=O)[O-])cc2)c1=O`, the figure is -22.8%; as for `CCC(C)NC(=O)c1ccccc1NC(=O)CN1C(=O)c2ccccc2S1(=O)=O` (stereo not drawn), -8.07%; as for `COc1ccc(N2CCN(C(=O)c3c(-c4ccccc4)noc3C)CC2)cc1`, 0.836%.

Regarding `CCc1cccc(NC(=O)CCCN2C(=O)C(c3ccccc3)Oc3cccnc32)c1` (stereo not drawn), the “hERG current change (%, negative = inhibition) at 1uM” value turned out to be 13%. As for `O=C1C(=Cc2cccn2-c2ccccc2)C(=O)c2ccccc21`, the figure is 15.2%; as for `COc1ccc(COCC(O)CN2CCCCC2)cc1OC.Cl` (stereo not drawn), 12.7%; as for `O=C(CNC(=O)c1cccc(N2C(=O)c3ccccc3C2=O)c1)Nc1ccc(F)c(F)c1`, 13%. Turning to `O=C(Nc1ccc(/C=C/c2nc3ccccc3o2)cc1)c1cccc(C(F)(F)F)c1`, the “hERG current change (%, negative = inhibition) at 1uM” value turned out to be 3.58%. As for `Fc1cccc(NC(=S)N2CCCCC2)c1`, the “hERG current change (%, negative = inhibition) at 1uM” value was 9.56%. Consider `COC(=O)c1ccc(COC(=O)c2ccc(-n3cnnn3)cc2)o1`, for which the “hERG current change (%, negative = inhibition) at 1uM” value is reported as 3.73%. On to `CC(=O)c1sc(NC(=O)c2ccc(F)cc2)nc1-c1ccccc1`, for which the “hERG current change (%, negative = inhibition) at 1uM” value came to 5.22%. `O=C(CN1CCOc2ccccc21)NCc1ccc(F)cc1`: the “hERG current change (%, negative = inhibition) at 1uM” value was -4.24%. As for `CCCCn1c(O)c(/C(C)=N/NC(=O)Nc2ccccc2)c(=O)[nH]c1=O`, the figure is 9.15%.

`CCOC(=O)CSc1n[nH]c(NC(=O)NC(C)C)n1`: the “hERG current change (%, negative = inhibition) at 1uM” value amounted to 12%. As for `O=C(NC12CC3CC(CC(C3)C1)C2)N1CCN(S(=O)(=O)c2ccc(Cl)cc2)CC1`, the figure is 7.35%; as for `O=C(N/C(=C\c1cccc([N+](=O)[O-])c1)C(=O)N1CCOCC1)c1cccc(Br)c1`, 7.37%; as for `CC(=O)Oc1cc2oc(=O)c3c(c2cc1Cl)CCC3`, 11.1%. `O=C(c1sc2ccccc2c1Cl)N1CCC2(CC1)OCCO2`: the “hERG current change (%, negative = inhibition) at 1uM” value is listed as 6.63%. Turning to `Oc1ccc(Nc2nc(-c3ccccc3)nc3ccccc23)cc1`, the “hERG current change (%, negative = inhibition) at 1uM” value came out at 4.13%. In the case of `O=C(/C=C/c1ccc(F)cc1)NCCc1ccc2c(c1)OCCO2` it was -1.76%; in that of `Cc1c(C(=O)N2CCN(S(=O)(=O)c3ccc(F)cc3)CC2)oc2ccccc12`, 4.19%. In the case of `CN1CCN(c2ccccc2NC(=O)c2ccc(Br)o2)CC1` it was -46.2%; in that of `COc1cc(/C=N\NC(=O)c2ccccc2F)ccc1Oc1ccc([N+](=O)[O-])cn1`, 1.66%. Regarding `CCOc1ccc(/C=C2\SC(=S)N(CCC(=O)O)C2=O)cc1`, the “hERG current change (%, negative = inhibition) at 1uM” value was 8.54%.

As to `CN(C)S(=O)(=O)c1ccc(Cl)c(NC(=O)COC(=O)C2CCCO2)c1` (stereo not drawn), the “hERG current change (%, negative = inhibition) at 1uM” value stood at 12.3%. Regarding `Br.COc1ccc(/C=N/N(C)C2=NCCN2)c(OC)c1OC`, the “hERG current change (%, negative = inhibition) at 1uM” value is reported as 12.2%. In the case of `CCC(=O)Nc1cccc(NC(=O)CSc2nnc(C3CC3)n2C)c1`, the “hERG current change (%, negative = inhibition) at 1uM” value turned out to be 4.98%. As for `Cc1nnc(SCc2c(Cl)cccc2Cl)s1`, the figure is 11.4%; as for `COc1ccc(C(C(=O)NCC2CCCO2)N(C(=O)CNC(=O)c2ccco2)c2ccc(C)c(C)c2)cc1OC` (stereo not drawn), 10.1%; as for `O=C(COc1ccc(F)cc1)N1c2ccccc2CCc2ccccc21`, 26.4%. In the case of `NC1=NC[C@H](c2ccccc2)N1CCCCC1CCCCC1` it was 4.72%; in that of `COc1cc(OC)cc(-c2nnc(SCc3cccc(C(=O)O)c3)o2)c1`, 10%. For the molecule `COc1ccc(/C=C(\C#N)C(=O)NCc2ccccc2)cc1O`, the “hERG current change (%, negative = inhibition) at 1uM” value stood at 1.53%. For the molecule `O=C(CCOc1ccccc1)Nc1ccnn1C1CCN(Cc2ccccc2)CC1`, the “hERG current change (%, negative = inhibition) at 1uM” value was 2%. As to `O=C(Cn1cnc2ccccc2c1=O)NCCC(=O)Nc1ccc2c(c1)OCCO2`, the “hERG current change (%, negative = inhibition) at 1uM” value is 9.75%. As for `Cc1ccc(OCC(=O)NCC(=O)n2nc(C)cc2C)cc1`, the “hERG current change (%, negative = inhibition) at 1uM” value is on record as 8.5%. On to `COc1ccc(Nc2c(-c3ccco3)nc3cccc(C)n23)cc1`, for which the “hERG current change (%, negative = inhibition) at 1uM” value is recorded as -0.306%. As to `O=C(NC1CCN(C(=S)NCc2ccco2)CC1)c1cccc(F)c1`, the “hERG current change (%, negative = inhibition) at 1uM” value was -1.23%. As to `Cc1cc(-c2ccccc2)c2nncn2n1`, the “hERG current change (%, negative = inhibition) at 1uM” value turned out to be 18.5%. Regarding `COC(=O)c1ccc(NC(=S)NNC(=O)CC(C)C)cc1`, the “hERG current change (%, negative = inhibition) at 1uM” value amounted to 7.15%. On to `O=C(Nc1cc(S(=O)(=O)N2CCOCC2)ccc1O)c1ccc2c(c1)S(=O)(=O)c1ccccc1C2=O`, for which the “hERG current change (%, negative = inhibition) at 1uM” value worked out at 20.6%. On to `COC(=O)c1ccccc1OCC(=O)N1CCN(c2ccc(OC)cc2)CC1`, for which the “hERG current change (%, negative = inhibition) at 1uM” value came to 12.2%. Regarding `O=C(NCc1ccccc1)c1ccc(=O)[nH]n1`, the “hERG current change (%, negative = inhibition) at 1uM” value was 6.79%.

As for `Cc1ccc(N/C=C(/C#N)c2ccsc2)cc1C`, the “hERG current change (%, negative = inhibition) at 1uM” value amounted to 11.4%. Take `CN(CC1COc2ccccc2O1)C(=O)c1cccc(S(=O)(=O)N2CCCC2)c1` (stereo not drawn): the “hERG current change (%, negative = inhibition) at 1uM” value came out at 2.35%. In the case of `COc1ccc(NC(=O)CCCn2c(=O)c3sccc3n(Cc3ccc(C)cc3)c2=O)cc1` it was -2.63%; in that of `CN(C)S(=O)(=O)n1ccnc1`, 5.54%. In the case of `CN(C(=O)c1ccccc1C(=O)OCC(=O)Nc1ccc(S(N)(=O)=O)cc1)c1ccccc1` it was 10.3%.

With `Cc1ccc(S(=O)(=O)Nc2cccc(C(=O)NCc3cccnc3)c2)cc1F`, the “hERG current change (%, negative = inhibition) at 1uM” value is 20.4%. In the case of `Cc1ccc(CNC(=O)COC(=O)CCCOc2ccc(Cl)cc2Cl)cc1`, the “hERG current change (%, negative = inhibition) at 1uM” value is listed as 19.4%. As for `O=C(NNC(=O)c1cc(-c2ccccc2)nn1-c1ccccc1)c1ccccc1`, the “hERG current change (%, negative = inhibition) at 1uM” value turned out to be 1.49%. In the case of `COc1cccc(C2C3(C#N)C(N)=NC(OC)(OC)C23C#N)c1` (stereo not drawn), the “hERG current change (%, negative = inhibition) at 1uM” value was determined as 9.3%. Take `CCOc1ccc(CCNC(=O)CN2C(=O)CCSc3ccccc32)cc1`: the “hERG current change (%, negative = inhibition) at 1uM” value was found to be 3.31%.

Regarding `CCN(CC(=O)Nc1ccccc1C(F)(F)F)C(=O)CCc1c(C)[nH]c(=O)c(C#N)c1C`, the “hERG current change (%, negative = inhibition) at 1uM” value turned out to be 4.71%. As for `Oc1ccc(-c2[nH]ncc2-c2ccc(Br)cc2)c(O)c1`, the figure is 6.73%; as for `N#Cc1ccccc1S(=O)(=O)N1CCN(S(=O)(=O)c2ccc(Br)c(C(=O)O)c2)CC1`, 12.2%. For the molecule `CN(C(=O)CCc1ccccc1)c1nnc(-c2ccncc2)s1`, the “hERG current change (%, negative = inhibition) at 1uM” value is 18.9%. Regarding `O=C(Nc1ccccc1N1CCCCC1)C1CCN(S(=O)(=O)c2ccccc2C(F)(F)F)CC1`, the “hERG current change (%, negative = inhibition) at 1uM” value stood at 4.04%. Turning to `CC(=NCC1CCNCC1)C1=C(O)CC(C)(C)CC1=O`, the “hERG current change (%, negative = inhibition) at 1uM” value is listed as 9.55%. In the case of `O=C(O)c1ccc(NS(=O)(=O)c2ccc3nnn(O)c3c2)cc1`, the “hERG current change (%, negative = inhibition) at 1uM” value is on record as -0.0934%.

Regarding `O=C(CN1C(=O)CCS(=O)(=O)c2ccccc21)NCc1ccc2c(c1)OCO2`, the “hERG current change (%, negative = inhibition) at 1uM” value was 4.18%. As for `Cl.O=C(Cc1ccccc1)OCCN1CCOCC1`, the figure is 18.4%. Take `Cc1ccc(/C=C/S(=O)(=O)NCC(=O)OCC(=O)Nc2c(F)cccc2F)cc1`: the “hERG current change (%, negative = inhibition) at 1uM” value is recorded as 8.06%. Take `Cc1cccc(OCCNc2cc(N3CCOCC3)ccc2[N+](=O)[O-])c1`: the “hERG current change (%, negative = inhibition) at 1uM” value was 2.66%.

Regarding `Cc1ccc(S(=O)(=O)NCc2ccc(C(=O)N(C)CCC#N)cc2)cc1`, the “hERG current change (%, negative = inhibition) at 1uM” value is listed as -0.626%. Regarding `CCCSCCCNC(=O)c1ccccc1NC(=O)C1=CSCCO1`, the “hERG current change (%, negative = inhibition) at 1uM” value is 9.35%. Take `COc1cccc(CNCCc2cccc(F)c2)c1OC.O=C(O)C(=O)O`: the “hERG current change (%, negative = inhibition) at 1uM” value was 10.7%. As for `CCN1CCN(c2cc3c(cc2F)c(=O)c(C(=O)O)cn3C2CC2)CC1`, the figure is 12.7%.

Consider `CCCCCSc1nc(C)c(CC(=O)O)c(=O)[nH]1`, for which the “hERG current change (%, negative = inhibition) at 1uM” value stood at 10.1%.

For `Nc1c(NC=O)c(=O)n(Cc2ccccc2)c(=O)n1Cc1ccccc1`, the “hERG current change (%, negative = inhibition) at 1uM” value is given as 13.7%.

As for `COc1ccc(CN2CCC(CNC(=O)NC3CCCCC3)CC2)cc1`, the “hERG current change (%, negative = inhibition) at 1uM” value is reported as -37.3%. Take `CCCCNC(=O)c1ccc(CS(=O)(=O)c2ccccc2OC)o1`: the “hERG current change (%, negative = inhibition) at 1uM” value came out at 7.78%.

Regarding `Cc1ccc(C)c(OCCCNC2CCCC2)c1C.O=C(O)C(=O)O`, the “hERG current change (%, negative = inhibition) at 1uM” value came to 10.1%.

For the molecule `COc1ccc(N(C(=O)c2ccco2)C(C(=O)NC2CCCCC2)c2cccs2)cc1OC` (stereo not drawn), the “hERG current change (%, negative = inhibition) at 1uM” value was determined as 11.1%. For `Cc1cc(OCCCn2ccnc2)ccc1C(C)C`, the “hERG current change (%, negative = inhibition) at 1uM” value was determined as 8.96%.

In the case of `CSc1nc(C)c2c(c1C#N)CCCC2`, the “hERG current change (%, negative = inhibition) at 1uM” value was determined as 0.889%. Turning to `CC(=O)c1c(C)[nH]c(C(=O)NCc2ccccn2)c1C`, the “hERG current change (%, negative = inhibition) at 1uM” value amounted to 12.5%. On to `O=C(O)Cc1csc(-c2ccc(F)cc2)n1`, for which the “hERG current change (%, negative = inhibition) at 1uM” value came out at 16.6%. As for `Cc1cccc(NC(=O)COC(=O)c2cccs2)c1C`, the figure is 11.7%; as for `COc1ccc([N+](=O)[O-])cc1NC(=O)Cc1ccc(Cl)cc1`, 12.8%.

`Cc1csc(=O)n1CCC(=O)OCC(=O)Nc1ccc(Cl)cn1`: the “hERG current change (%, negative = inhibition) at 1uM” value is on record as 6.83%.

For the molecule `COc1ccccc1NC(=O)COc1ccc(/C=N/NC(=O)CSCc2ccc(Cl)cc2)cc1`, the “hERG current change (%, negative = inhibition) at 1uM” value was 7.3%. Regarding `CCC(C)C(NC(=O)C1CCC(=O)N1C(=O)OCc1ccccc1)C(=O)NC(C(=O)N1CCCC1C(N)=O)C(C)CC` (stereo not drawn), the “hERG current change (%, negative = inhibition) at 1uM” value is listed as 6.05%. `COc1cccc(S(=O)(=O)N2CCOCC2)c1`: the “hERG current change (%, negative = inhibition) at 1uM” value is listed as -3.4%. Regarding `O=C(/C=C/c1ccco1)NCCCN1CCOCC1`, the “hERG current change (%, negative = inhibition) at 1uM” value worked out at 13.9%.

With `O=C(COC(=O)CCC1CCCC1)Nc1ccccc1Br`, the “hERG current change (%, negative = inhibition) at 1uM” value was -1.26%. Take `CC(=O)Nc1ccccc1OCC(=O)c1cc(C)n(Cc2cccs2)c1C`: the “hERG current change (%, negative = inhibition) at 1uM” value came out at 13.5%.

On to `Cc1ccccc1OCCn1c(=S)[nH]c2c(N)ncnc21`, for which the “hERG current change (%, negative = inhibition) at 1uM” value is reported as 8.36%. In the case of `Cc1occc1-c1nnc(SCC(=O)NCc2cccs2)n1-c1ccc(F)cc1` it was -14%.
